# Measured values from patent EP4667484A1 (QIZHEN BIOPHARMA CO., LTD. (HANGZHOU), dated 2025).
# Biological target: recombinant human IL-1β protein (Sino Biological) (human, UniProt P01584 117-269)
# Test: cell-based or functional assay
binder,measurement,value
"K131E mutant IL-1 trap protein (Fc fusion, also called K131E Trap; K131E-Fc) SERCDDWGLDTMRQIQVFEDEPARIKCPLFEHFLKFNYSTAHSAGLTLIWYWTRQDRDLEEPINFRLPENRISKEKDVLWFRPTLLNDTGNYTCMLRNTTYCSKVAFPLEVVQKDSCFNSPMKLPVHKLYIEYGIQRITCPNVDGYFPSSVKPTITWYMGCYKIQNFNNVIPEGMNLSFLIALISNNGNYTCVVTYPENGRTFHLTRTLTVKVVGSPKNAVPPVIHSPNDHVVYEKEPGEELLIPCTVYFSFLMDSRNEVWWTIDGKKPDDITIDVTINESISHSRTEDETRTQILSIKKVTSEDLKRSYVCHARSAKGEVAKAAKVKQKVPAPRYTVELEADKCKEREEKIILVSSANEIDVRPCPLNPNEHKGTITWYKDDSKTPVSTEQASRIHQHKEKLWFVPAKVEDSGHYYCVVRNSSYCLRIKISAKFVENEPNLCYNAQAIFKQELPVAGDGGLVCPYMEFFKNENNELPKLQWYKDCKPLLLDNIHFSGVKDRLIVMNVAEKHRGNYTCHASYTYLGKQYPITRVIEFITLEENKPTRPVIVSPANETMEVDLGSQIQLICNVTGQLSDIAYWKWNGSVIDEDDPVLGEDYYSVENPANKRRSTLITVLNISEIESRFYKHPFTCFAKNTHGIDAAYIQLIYPVTADDDDK[human IgG1 Fc with changes not listed]",inhibition of IL-1β-induced IL-6 production in human MRC-5 lung fibroblasts (IC50),0.118 nM
